According to publication PMC1829190:
Substitutions are numbered along the chain they refer to. Results are given in words; binding and its absence hold for the method and conditions named. Binding seen in cells or lysates may run through a third protein. Some binding calls cover weakened binding; strength is not graded here. For part of these data: Where a sequence is shown, tags or fusion partners need not be part of it. Each block holds one molecule with its values, some of them ahead of it.

Key:
Test in all cases: co-IP; native yeast extracts; Mad3p complexes immunoprecipitated (anti-Mad3p), then immunoblotted for Mad3p, Bub3-myc13 (anti-myc), Mad2p and Cdc20p-myc13 (anti-myc); for Mad2p and Cdc20p the cells were arrested in mitosis with hydroxyurea and nocodazole
[1] = target: T1, mad3-KEN296AAAp (S. cerevisiae) (UniProt P47074)
T1 sequence: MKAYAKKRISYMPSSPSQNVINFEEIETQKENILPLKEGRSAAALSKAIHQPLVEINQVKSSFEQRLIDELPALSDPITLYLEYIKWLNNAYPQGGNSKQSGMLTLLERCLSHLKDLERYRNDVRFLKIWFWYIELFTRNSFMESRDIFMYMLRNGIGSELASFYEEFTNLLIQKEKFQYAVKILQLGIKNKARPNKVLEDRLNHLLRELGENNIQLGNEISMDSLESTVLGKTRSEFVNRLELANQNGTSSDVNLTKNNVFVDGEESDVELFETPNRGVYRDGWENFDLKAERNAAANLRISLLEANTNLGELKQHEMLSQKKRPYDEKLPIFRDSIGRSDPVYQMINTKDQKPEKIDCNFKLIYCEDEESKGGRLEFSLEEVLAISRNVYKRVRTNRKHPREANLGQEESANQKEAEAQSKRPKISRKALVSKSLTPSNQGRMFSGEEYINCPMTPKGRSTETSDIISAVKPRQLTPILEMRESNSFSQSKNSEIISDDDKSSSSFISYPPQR

[2] = target: T2, Mad3p double KEN mutant (mad3-KEN30/296AAA) (S. cerevisiae) (UniProt P47074)
T2 sequence: T1 sequence with K30A, E31A, N32A

[3] = target: T3, Mad3-KEN30AAAp (S. cerevisiae) (UniProt P47074)
T3 sequence: T1 sequence with K30A, E31A, N32A, A296K, A297E, A298N

[4] = target: T4, Mad3p (wild type, S. cerevisiae) (S. cerevisiae) (UniProt P47074)
T4 sequence: T1 sequence with A296K, A297E, A298N

[5] = target: T5, Mad3p (wild type, S. cerevisiae) (S. cerevisiae), P47074; details: remark: other sources report otherwise
T5 chain: T1 sequence with A296K, A297E, A298N

- binding [1]: binds
- binding [2]: no binding
- binding [3]: no binding
Molecule: Mad2p (S. cerevisiae) (from UniProt P40958 1-196)

- binding [1]: binds
- binding [2]: no binding
- binding [4]: binds
- binding [3]: no binding
B1: Cdc20p-myc13 (protein, UniProt P26309 1-610)
chain: MPESSRDKGNAAISGNRSVLSIASPTKLNILSSDWSRNQGKVSKNSLKRSSSLNIRNSKRPSLQASANSIYSRPKITIGAPPLIRRDSSFFKDEFDAKKDKATFSAYSSRSYPTIGSESVVSQTSLSQPTTSREVDEQFTVAADRYIPILQGASQNKVDPETLHEALPPPNASPISHLRAQTKIVFKQNVAEACGLDMNKRILQYMPEPPKCSSLRQKSYIMKKRTHYSYQQEQKIPDLIKLRKINTNPERILDAPGFQDDFYLNLLSWSKKNVLAIALDTALYLWNATTGDVSLLTDFENTTICSVTWSDDDCHISIGKEDGNTEIWDVETMSLIRTMRSGLGVRIGSLSWLDTLIATGSRSGEIQINDVRIKQHIVSTWAEHTGEVCGLSYKSDGLQLASGGNDNTVMIWDTRTSLPQFSKKTHTAAVKALSWCPYSPNILASGGGQTDKHIHFWNSITGARVGSINTGSQVSSLHWGQSHTSTNGGMMNKEIVATGGNPENAISVYNYETKFKVAEVVHAHEARICCSQLSPDGTTLATVGGDENLKFYKIFDPRCTGRSREDGLMDGMLGLIGKEGCRTNDKENRSKNSSEIHTRRPSSTSQYLIR

- binding [5]: binds
B2: Mad2p (S. cerevisiae), P40958 1-196 (protein)
chain: MSQSISLKGSTRTVTEFFEYSINSILYQRGVYPAEDFVTVKKYDLTLLKTHDDELKDYIRKILLQVHRWLLGGKCNQLVLCIVDKDEGEVVERWSFNVQHISGNSNGQDDVVDLNTTQSQIRALIRQITSSVTFLPELTKEGGYTFTVLAYTDADAKVPLEWADSNSKEIPDGEVVQFKTFSTNDHKVGAQVSYKY

- binding [1]: binds
- binding [2]: binds
- binding [4]: binds
- binding [3]: binds
B3: Bub3-myc13 (protein, UniProt P26449 1-341)
chain: MQIVQIEQAPKDYISDIKIIPSKSLLLITSWDGSLTVYKFDIQAKNVDLLQSLRYKHPLLCCNFIDNTDLQIYVGTVQGEILKVDLIGSPSFQALTNNEANLGICRICKYGDDKLIAASWDGLIEVIDPRNYGDGVIAVKNLNSNNTKVKNKIFTMDTNSSRLIVGMNNSQVQWFRLPLCEDDNGTIEESGLKYQIRDVALLPKEQEGYACSSIDGRVAVEFFDDQGDDYNSSKRFAFRCHRLNLKDTNLAYPVNSIEFSPRHKFLYTAGSDGIISCWNLQTRKKIKNFAKFNEDSVVKIACSDNILCLATSDDTFKTNAAIDQTIELNASSIYIIFDYEN
